Source: the supplement of paper PMC4723716
± gives the uncertainty stated by the source. The full ranking holds about 9,900 compounds; the median of “viability index relative to DMSO control” is about 1, and the lowest 2% start at about 0.85. Some of the results follow.

tested on: Plasmodium falciparum NF54 stage V gametocytes; test: viability index relative to DMSO control (fraction); higher = less gametocyte killing; conditions: 2.5 µM, library set: Broad Institute DOS, incubation time: 72 h
Protocol: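 Broad DOS informer set and blood-stage-active DOS compounds screened in duplicate at 2.5 µM against P. falciparum NF54 stage V gametocytes with the serum-free one-step SaLSSA (1536-well): 72 h at 37 °C under low oxygen, then saponin lysis and MitoTracker Red CMXRos staining, with high-content imaging. Viability index = viable-object count divided by the plate mean of DMSO wells (0 = killed, about 1 = inactive).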

Row | SMILES | viability index
1 | O=C(O)[C@H]1[C@H](CO)[C@H]2Cn3c(ccc(-c4cccnc4)c3=O)[C@@H]1N2C(=O)Nc1cc(F)ccc1F | 1.08 ± 0.059
2 | C[C@@H]1CN([C@H](C)CO)C(=O)CCCn2nncc2CO[C@@H]1CN(C)C(=O)Oc1cccc2ccccc12 | 1.02 ± 0.038
3 | CCC(=O)N1[C@@H]2Cn3c(ccc(C4=CCCC4)c3=O)[C@H]1[C@@H](C(=O)OC)[C@@H]2CO | 1.0457 ± 3.7e-05
4 | COC(=O)[C@H]1[C@H](CO)[C@H]2Cn3c(ccc(-c4cccc(C(=O)N(C)C)c4)c3=O)[C@@H]1N2C(=O)NC(C)C | 1.05 ± 0.047
5 | c1cncc(-c2ccc([C@@H]3[C@H]4CNC[C@@H]3N4CC3CC3)cc2)c1 | 1.03 ± 0.026
6 | C[C@@H]1CN([C@@H](C)CO)C(=O)CCCn2nncc2CO[C@H]1CN(C)C(=O)Oc1cccc2ccccc12 | 0.953 ± 0.019
7 | O=C(O)C[C@@H]1CC[C@H]2NC[C@@H](O)COC[C@@H]2O1 | 1.13 ± 0.034
8 | COC(=O)[C@@H]1[C@@H](CO)[C@@H]2Cn3c(ccc(-c4cccc(F)c4)c3=O)[C@H]1N2Cc1ccncc1 | 1.064 ± 0.0094
9 | OC[C@@H]1[C@@H]2c3ccccc3NC[C@@H]2N1Cc1cccnc1 | 1.03 ± 0.021
10 | C/C=C/c1ccc2n(c1=O)C[C@@H]1[C@@H](CO)[C@H](C(=O)OC)[C@H]2N1S(=O)(=O)c1ccccc1C.C/C=C\c1ccc2n(c1=O)C[C@@H]1[C@@H](CO)[C@H](C(=O)OC)[C@H]2N1S(=O)(=O)c1ccccc1C | 0.989 ± 0.091
11 | C/C=C/c1ccc([C@@H]2[C@H](CO)N3CCCCN(C(=O)Cc4cccnc4)C[C@@H]23)cc1 | 0.952 ± 0.0099
12 | CN1[C@@H](CO)[C@@H]2c3ccccc3NC[C@@H]21 | 0.95 ± 0.073
13 | COC(=O)[C@H]1[C@H](CO)[C@H]2Cn3c(cccc3=O)[C@H]2N1CC1CC1 | 0.967 ± 0.037
14 | COC(=O)[C@@H]1[C@@H](CO)[C@@H]2Cn3c(cccc3=O)[C@@H]2N1CC1CC1 | 0.972 ± 0.034
15 | O=C([C@H]1N[C@H]2c3cccc(=O)n3C[C@H]2[C@@H]1CO)N1CCCCC1 | 1.077 ± 0.0027
16 | COc1cccc(-c2ccc([C@@H]3[C@H](CO)N4CCCCN(C(=O)Cc5ccncc5)C[C@@H]34)cc2)c1 | 1.019 ± 0.004
17 | COC(=O)[C@H]1[C@H](CO)[C@H]2Cn3c(ccc(-c4cccc(F)c4)c3=O)[C@@H]1N2Cc1ccncc1 | 1.04 ± 0.058
18 | C[C@H]1CN([C@@H](C)CO)C(=O)CCCn2cc(nn2)CO[C@@H]1CN(C)C(=O)Oc1ccc2ccccc2c1 | 1.08 ± 0.021
19 | COc1cccc(-c2ccc([C@@H]3[C@@H](CO)N4CCCCN(C(=O)Cc5ccncc5)C[C@@H]34)cc2)c1 | 0.865 ± 0.051
20 | C[C@H](CO)N1C[C@H](C)[C@@H](CN(C)C(=O)Oc2cccc3ccccc23)OCc2cnnn2CCCC1=O | 0.943 ± 0.044
21 | C/C=C/c1ccc([C@@H]2[C@@H]3CN(Cc4ccccn4)C[C@H]2N3)cc1 | 1.09 ± 0.061
22 | C/C=C/c1ccc([C@@H]2[C@H]3CNC[C@@H]2N3Cc2ccccn2)cc1 | 0.9915 ± 0.0027
23 | O=C1CNC[C@@H]2[C@H](c3ccc(Br)cc3)[C@@H](CO)N12 | 1.0696 ± 0.00028
24 | C/C=C/c1ccc([C@H]2[C@@H]3CN(C(=O)C4CCOCC4)C[C@H]2N3)cc1 | 1.1 ± 0.058
25 | O=C1CNC[C@H]2[C@H](c3ccc(Br)cc3)[C@H](CO)N12 | 1.05 ± 0.023
26 | OC[C@@H]1[C@H]2c3ccccc3NC[C@H]2N1Cc1cccnc1 | 0.984 ± 0.058

Row | SMILES | viability index
27 | C[C@@H]1CN([C@@H](C)CO)C(=O)CCCn2cc(nn2)CO[C@@H]1CN(C)C(=O)Oc1ccc2ccccc2c1 | 1.05 ± 0.019
28 | CN1c2ccc(Br)cc2[C@@H]2NCC[C@@H]2[C@@H]1CO | 1 ± 0.045
29 | C/C=C/c1ccc([C@@H]2[C@H]3CN(C(=O)Cc4cccnc4)CCCCN3[C@H]2CO)cc1 | 1.12 ± 0.03
30 | C/C=C/c1ccc([C@@H]2[C@@H](CO)N3CCCCN(C(=O)Cc4cccnc4)C[C@H]23)cc1 | 1.08 ± 0.098
31 | O=C(Cc1ccncc1)N1CCCCN2[C@@H](CO)[C@H](c3ccc(C#Cc4ccccc4F)cc3)[C@@H]2C1 | 0.84 ± 0.22
32 | OC[C@H]1[C@H]2c3ccccc3NC[C@H]2N1Cc1cccnc1 | 0.965 ± 0.065
33 | CCCNC(=O)N1[C@@H]2c3ccc(-c4ccccc4OC)c(=O)n3C[C@H]1[C@H](CO)[C@H]2C(=O)OC | 1.03 ± 0.025
34 | COc1ccccc1CN1[C@H](CO)[C@@H](c2ccccc2)C12CN(C(=O)Cc1ccccc1)C2 | 0.992 ± 0.079
35 | CN1[C@@H]2CNc3ccccc3[C@@H]2[C@@H]1CO | 1.02 ± 0.17
36 | CN(C)CC#Cc1ccc([C@H]2[C@@H](CO)N3CCCCN(C(=O)Cc4ccccn4)C[C@H]23)cc1 | 0.944 ± 0.047
37 | O=C(O)C[C@@H]1CC[C@H]2NC[C@H](O)COC[C@@H]2O1 | 1.02 ± 0.11
38 | O=C1CNC[C@H]2[C@@H](c3ccc(Br)cc3)[C@H](CO)N12 | 0.837 ± 0.14
39 | C/C=C/c1ccc([C@@H]2[C@@H](CO)N3CCCCN(C(=O)Cc4cccnc4)C[C@@H]23)cc1 | 1 ± 0.029
40 | COc1cccc(-c2ccc([C@@H]3[C@@H](CO)N4CCCCN(C(=O)Cc5ccncc5)C[C@H]34)cc2)c1 | 0.9892 ± 0.0031
41 | COC(=O)[C@@H]1[C@@H](CO)[C@@H]2Cn3c(cccc3=O)[C@H]1N2CCc1ccccc1 | 1.04 ± 0.011
42 | C[C@H]1CN([C@@H](C)CO)C(=O)CCCn2nncc2CO[C@H]1CN(C)C(=O)Oc1cccc2ccccc12 | 1.08 ± 0.018
43 | O=C(O)[C@H]1[C@H](CO)[C@H]2Cn3c(ccc(C4=CCCCC4)c3=O)[C@@H]1N2C(=O)Cc1ccccn1 | 1.01 ± 0.0059
44 | COC(=O)[C@H]1[C@H](CO)[C@H]2Cn3c(cccc3=O)[C@@H]1N2CCc1ccccc1 | 1.06 ± 0.071
45 | CN1[C@H](CO)[C@H]2c3ccccc3NC[C@H]21 | 1.05 ± 0.098
46 | C/C=C/c1ccc([C@H]2[C@H]3CNC[C@@H]2N3Cc2ccccn2)cc1 | 1.07 ± 0.017
47 | COc1cccc(-c2ccc([C@@H]3[C@H]4CN(C(=O)Cc5ccncc5)CCCCN4[C@H]3CO)cc2)c1 | 0.936 ± 0.055
48 | COc1cccc(-c2ccc([C@H]3[C@H]4CN(C(=O)Cc5ccncc5)CCCCN4[C@H]3CO)cc2)c1 | 1.01 ± 0.07
49 | OC[C@@H]1Nc2ccc(C#Cc3cccnc3)cc2[C@H]2NCC[C@@H]12 | 1.065 ± 0.006
50 | O=C(O)[C@@H]1[C@@H](CO)[C@@H]2Cn3c(ccc(C4=CCCCC4)c3=O)[C@H]1N2C(=O)Cc1ccccn1 | 1.03 ± 0.13
51 | C[C@H]1CN([C@@H](C)CO)C(=O)CCCn2cc(nn2)CO[C@H]1CN(C)C(=O)Oc1ccc2ccccc2c1 | 1.04 ± 0.036
52 | O=C(Cc1ccncc1)N1CCCCN2[C@H](C1)[C@@H](c1ccc(C#Cc3ccccc3F)cc1)[C@@H]2CO | 0.971 ± 0.021

Row | SMILES | viability index
53 | O=C(Cc1ccccc1)N1CC2(C1)[C@H](c1ccccc1)[C@@H](CO)N2Cc1cccc(Cl)c1 | 1.14 ± 0.029
54 | C/C=C/c1ccc2n(c1=O)C[C@H]1[C@H](CO)[C@@H](C(=O)OC)[C@@H]2N1S(=O)(=O)c1ccccc1C.C/C=C\c1ccc2n(c1=O)C[C@H]1[C@H](CO)[C@@H](C(=O)OC)[C@@H]2N1S(=O)(=O)c1ccccc1C | 1.07 ± 0.013
55 | C[C@@H]1CN([C@H](C)CO)C(=O)CCCn2nncc2CO[C@H]1CN(C)C(=O)Oc1cccc2ccccc12 | 1.084 ± 0.0053
56 | COc1cccc(-c2ccc([C@H]3[C@@H](CO)N4CCCCN(C(=O)Cc5ccncc5)C[C@H]34)cc2)c1 | 1.06 ± 0.046
57 | O=C(Cc1ccncc1)N1CCCCN2[C@H](C1)[C@H](c1ccc(C#Cc3ccccc3F)cc1)[C@@H]2CO | 0.923 ± 0.069
58 | OC[C@H]1Nc2ccc(C#Cc3cccnc3)cc2[C@H]2NCC[C@H]21 | 1.06 ± 0.021
59 | COc1cccc(-c2ccc([C@H]3[C@@H](CO)N4CCCCN(C(=O)Cc5ccncc5)C[C@@H]34)cc2)c1 | 0.97 ± 0.021
60 | C[C@@H]1CN([C@H](C)CO)C(=O)CCCn2cc(nn2)CO[C@@H]1CN(C)C(=O)Oc1ccc2ccccc2c1 | 1.06 ± 0.052
61 | C/C=C/c1ccc([C@H]2[C@@H](CO)N3CCCCN(C(=O)Cc4cccnc4)C[C@H]23)cc1 | 1.01 ± 0.039
62 | O=C(O)[C@@H]1[C@@H](CO)[C@@H]2Cn3c(ccc(-c4cccnc4)c3=O)[C@H]1N2C(=O)Nc1cc(F)ccc1F | 1.1 ± 0.081
63 | C/C=C/c1ccc([C@H]2[C@@H](CO)N3CCCCN(C(=O)Cc4cccnc4)C[C@@H]23)cc1 | 1.03 ± 0.013
64 | CN(C)CC#Cc1ccc([C@@H]2[C@@H](CO)N3CCCCN(C(=O)Cc4ccccn4)C[C@H]23)cc1 | 1 ± 0.092
65 | C/C=C/c1ccc([C@@H]2[C@@H]3CN(S(C)(=O)=O)C[C@H]2N3)cc1 | 1.16 ± 0.091
66 | O=C(Cc1ccccc1)N1CC2(C1)[C@H](c1ccccc1)[C@H](CO)N2Cc1cccc(Cl)c1 | 1.0745 ± 8.3e-05
67 | CCC(=O)N1[C@@H]2c3ccc(C4=CCCC4)c(=O)n3C[C@H]1[C@H](CO)[C@H]2C(=O)OC | 1.063 ± 0.0013
68 | O=C(O)[C@H]1[C@H](CO)[C@H]2Cn3c(ccc(-c4ccncc4)c3=O)[C@@H]1N2S(=O)(=O)c1ccccc1F | 1.03 ± 0.026
69 | C/C=C/c1ccc([C@@H]2[C@@H]3CN(C(=O)C4CCOCC4)C[C@H]2N3)cc1 | 1.06 ± 0.011
70 | O=C(Cc1ccncc1)N1CCCCN2[C@@H](CO)[C@@H](c3ccc(C#Cc4ccccc4F)cc3)[C@@H]2C1 | 0.964 ± 0.047
71 | C/C=C/c1ccc([C@H]2[C@H]3CN(C(=O)Cc4cccnc4)CCCCN3[C@H]2CO)cc1 | 1.01 ± 0.074
72 | O=C1CNC[C@@H]2[C@H](c3ccc(Br)cc3)[C@H](CO)N12 | 0.992 ± 0.074
73 | C/C=C/c1ccc([C@H]2[C@H](CO)N3CCCCN(C(=O)Cc4cccnc4)C[C@@H]23)cc1 | 1.04 ± 0.011
74 | C[C@H](CO)N1C[C@H](C)[C@H](CN(C)C(=O)Oc2cccc3ccccc23)OCc2cnnn2CCCC1=O | 1.05 ± 0.013
75 | O=C1CNC[C@@H]2[C@@H](c3ccc(Br)cc3)[C@@H](CO)N12 | 0.965 ± 0.037
76 | O=C1CNC[C@H]2[C@H](c3ccc(Br)cc3)[C@@H](CO)N12 | 1.04 ± 0.06
77 | COc1ccccc1CN1[C@@H](CO)[C@@H](c2ccccc2)C12CN(C(=O)Cc1ccccc1)C2 | 1.09 ± 0.027
